Test results reported in the supplement of paper PMC7826260.
The other results are listed elsewhere or left out. The data describe in vitro nicking of single-stranded DNA by Rep domains (3 µM enzyme, 1 h, 37 °C); shown is the middle of each 90-letter strand. A value is the log2 ratio of uncut reads to the pool without enzyme; the lower, the more was cut; hits are not called. Because reads are shares of a total, they shift together; where an enzyme cuts many sequences, the uncut ones exceed 0.

Key:
Assay in all cases: uncleaved DNA left, log2 of reads against the no-enzyme library (log2 ratio); higher = less cleavage (more negative = more Rep cleavage of the k-mer); sequences stand for … in CTCGTCCG…ACCGGAGA
[1] = system: T1, Rep nickase domain of Muscovy duck circovirus
T1 sequence (Rep 1-111, printed without the tag): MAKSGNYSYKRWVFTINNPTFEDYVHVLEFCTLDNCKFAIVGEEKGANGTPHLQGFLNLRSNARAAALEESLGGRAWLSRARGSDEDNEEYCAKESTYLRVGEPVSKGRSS
Method: (§1)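 A pool of 90-nt single-stranded DNAs with seven random bases just before the constant AC of the nick site (name = the seven bases) was cut by 3 µM recombinant His6-SUMO-tagged Rep nickase domain (300 nM DNA, 50 mM HEPES pH 8.0, 50 mM NaCl, 1 mM MnCl2, 1 h, 37 °C, three replicates). Uncut DNA was amplified and sequenced.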

[2] = system: T2, Rep nickase domain of banana bunchy top virus
T2 sequence (Rep 1-94, printed without the tag): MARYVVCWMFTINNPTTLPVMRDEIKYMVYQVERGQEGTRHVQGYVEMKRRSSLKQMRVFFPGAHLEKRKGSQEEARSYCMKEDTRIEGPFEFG
Method: as §1

[3] = system: T3, Rep nickase domain of cabbage leaf curl virus
T3 sequence (Rep 1-116, printed without the tag): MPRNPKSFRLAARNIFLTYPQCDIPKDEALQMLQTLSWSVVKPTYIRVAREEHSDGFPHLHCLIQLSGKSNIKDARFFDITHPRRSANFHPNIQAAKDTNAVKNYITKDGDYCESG
Method: as §1

[4] = system: T4, Rep nickase domain of chickpea chlorotic dwarf virus
T4 sequence (Rep 1-124, printed without the tag): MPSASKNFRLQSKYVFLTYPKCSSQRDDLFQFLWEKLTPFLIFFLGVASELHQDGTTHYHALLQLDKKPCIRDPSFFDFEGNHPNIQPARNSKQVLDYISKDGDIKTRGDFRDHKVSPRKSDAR
Method: as §1

[5] = system: T5, Rep nickase domain of faba bean necrotic yellows virus
T5 sequence (Rep 1-98, printed without the tag): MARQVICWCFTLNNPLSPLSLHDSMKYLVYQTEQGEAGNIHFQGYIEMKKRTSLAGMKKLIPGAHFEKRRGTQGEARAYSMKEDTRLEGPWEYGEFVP
Method: as §1

[6] = system: T6, Rep nickase domain of maize striate mosaic virus
T6 sequence (Rep 1-117, printed without the tag): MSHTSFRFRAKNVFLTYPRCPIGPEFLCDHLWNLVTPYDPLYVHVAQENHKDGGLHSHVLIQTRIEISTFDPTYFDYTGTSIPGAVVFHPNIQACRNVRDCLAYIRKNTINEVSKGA
Method: as §1

[7] = system: T7, Rep nickase domain of porcine circovirus 2
T7 sequence (Rep 2-116, printed without the tag): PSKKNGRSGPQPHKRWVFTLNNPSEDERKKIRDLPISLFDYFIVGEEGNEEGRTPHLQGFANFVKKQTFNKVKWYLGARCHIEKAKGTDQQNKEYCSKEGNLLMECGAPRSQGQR
Method: as §1

[8] = system: T8, Rep nickase domain of tomato yellow leaf curl virus
T8 sequence (Rep 1-136, printed without the tag): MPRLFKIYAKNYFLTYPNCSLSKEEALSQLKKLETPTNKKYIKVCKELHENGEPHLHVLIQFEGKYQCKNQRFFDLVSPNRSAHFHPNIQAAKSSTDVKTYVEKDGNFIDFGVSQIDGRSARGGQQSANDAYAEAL
Method: as §1

[9] = system: T9, Rep nickase domain of wheat dwarf virus
T9 sequence (Rep 1-137, printed without the tag): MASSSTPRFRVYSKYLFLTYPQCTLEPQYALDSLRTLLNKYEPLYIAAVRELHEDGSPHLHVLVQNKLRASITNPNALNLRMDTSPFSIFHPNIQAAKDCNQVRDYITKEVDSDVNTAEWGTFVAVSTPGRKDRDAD
Method: as §1

Sequence	uncleaved DNA left (log2) [1]	uncleaved DNA left (log2) [2]	uncleaved DNA left (log2) [3]	uncleaved DNA left (log2) [4]	uncleaved DNA left (log2) [5]	uncleaved DNA left (log2) [6]	uncleaved DNA left (log2) [7]	uncleaved DNA left (log2) [8]	uncleaved DNA left (log2) [9]
ATCAAAA	-0.0854	0.00926	-0.0873	-0.0212	-0.0162	-0.738	-0.0136	-0.0852	-0.0428
ACGCCGC	-0.103	-0.0354	-0.384	-0.655	-0.0882	-1.06	0.0266	-0.0331	-0.184
CCGAGTG	0.027	0.0278	-0.101	0.511	0.0368	0.782	0.0347	0.00243	-0.0651
GAAAGAT	0.0351	-0.086	0.116	-0.0729	-0.0868	1.35	0.0654	-0.0875	0.076
GAAACCT	-0.0962	0.00626	-0.516	-2.03	0.0226	0.604	-0.675	0.025	-0.0419
GCGGGTC	0.206	0.163	0.732	1.05	0.041	1.7	0.37	0.111	0.141
AACATAG	0.186	0.143	-0.605	-0.0852	0.184	-0.926	0.331	0.195	0.0462
CCGGTAT	0.0714	0.106	0.311	0.458	-0.0572	1.47	0.0223	0.0344	0.114
CGATGGG	0.0772	0.0787	-0.403	-0.419	0.142	-0.807	0.142	0.102	-0.111
TACCTCT	0.0924	0.0945	-0.849	-2.81	0.0592	-0.505	-1.96	0.067	-0.0994
CAAGAGT	0.000717	-0.152	-0.456	-1.13	-0.0606	-0.725	-0.183	-0.141	-0.178
CTCATAG	0.129	0.0645	-0.789	-0.22	0.219	-1.09	0.198	0.213	0.0123
ATGGATT	0.144	0.185	0.398	1.47	0.209	1.76	0.242	0.00186	0.219
ATAGTAC	-0.576	-0.0246	-0.0643	-1.22	0.103	-0.856	-0.485	0.0849	-0.0697
TTCGTCG	-0.0117	-0.0661	-0.854	-0.0744	0.108	-1.18	0.0908	-0.0888	-0.0592
CTTAATA	0.000554	0.187	-0.0729	-1.5	0.1	-0.676	0.123	0.095	0.185
TAAGTAT	0.114	-0.077	-2.92	-2.33	0.0958	0.909	0.0432	-0.149	-1.15
TTGTTTG	-0.0892	-0.0209	-0.502	-0.727	0.106	-1.07	0.045	-0.0625	-0.0121
GCCCGGA	-0.026	-0.0395	0.244	0.647	-0.0149	0.518	0.0242	0.0315	-0.126
GCGGATC	0.136	0.133	0.76	1.54	0.157	1.97	0.241	0.122	0.148
CTCTTAA	-0.103	-0.166	-0.219	-0.444	-0.0742	-0.781	-0.134	-0.184	-0.127
TATTTTT	-3.79	-3.6	-3.12	-3.23	-0.92	-0.612	-3.85	0.0944	-2.27

Sequence	uncleaved DNA left (log2) [1]	uncleaved DNA left (log2) [2]	uncleaved DNA left (log2) [3]	uncleaved DNA left (log2) [4]	uncleaved DNA left (log2) [5]	uncleaved DNA left (log2) [6]	uncleaved DNA left (log2) [7]	uncleaved DNA left (log2) [8]	uncleaved DNA left (log2) [9]
ATCCCGC	0.0359	-0.03	-0.546	-0.535	-0.0947	-0.851	0.0503	-0.0684	-0.102
CCACCCT	-0.201	-0.0498	-0.319	-2.35	-0.017	-0.509	-0.85	-0.0737	-0.216
TAACAGT	-0.0456	-0.112	-2.47	-2.98	-0.0948	-1.11	-0.152	0.00734	-0.748
TCGGACT	0.092	0.174	0.719	1.15	0.0933	1.81	0.201	0.018	0.238
GAATGGC	-0.0338	-0.00525	-0.0839	-0.0143	0.021	-0.629	-0.0263	0.0664	0.000528
GGAAGAG	0.0911	0.111	0.573	1.45	0.0322	1.06	0.33	0.00752	0.152
AGAGTAT	0.00849	0.0998	0.141	0.73	-0.0557	1.22	-0.145	-0.00509	0.045
GTTGTAC	-0.116	-0.000974	0.284	0.733	-0.169	1.53	-0.00175	0.0376	-0.0922
GTCCGTT	-0.0985	-0.144	0.15	0.413	-0.171	1.19	-0.155	0.0342	-0.0223
TCTATGA	0.137	0.111	0.195	0.252	0.0817	-0.466	0.0296	0.00172	0.00975
GAACCGT	0.0176	0.0306	0.0287	-0.609	-0.0137	-0.144	-0.118	-0.0362	-0.0663
TGTCGTT	-0.102	-0.0487	-0.0338	-0.995	-0.0833	-0.466	-0.907	0.0179	-0.0828
ACACGAT	-0.0716	-0.0811	-0.372	-0.836	0.038	-0.666	0.138	-0.0901	-0.0643
GTATGAG	0.0749	-0.00261	-0.562	-0.235	0.172	-0.737	0.131	0.198	0.0147
GCCGACT	-0.0231	-0.168	0.0604	0.21	-0.207	1.18	-0.132	-0.134	-0.128
TACGCGG	-0.0591	-0.133	0.262	0.893	-0.111	0.935	0.0374	-0.0765	-0.0401
CTGCAGA	-0.128	-0.207	-0.565	-0.659	-0.0317	-1.17	0.0442	-0.0415	-0.0986
CGCTAAC	0.081	-0.09	-0.287	-1.1	0.0762	-0.496	0.0229	0.00595	0.145
TATGACT	0.0169	0.0078	-0.848	-2.54	0.011	0.374	-0.108	0.0406	0.0491
TGGTGGA	-0.0968	-0.0627	0.349	0.286	0.0304	0.391	0.0616	-0.0445	0.0222
GGCTGGT	-0.0233	0.0718	0.208	0.81	-0.111	1.61	-0.285	0.0937	0.038
GGTATTA	0.0511	0.137	0.47	1.09	-0.111	1.84	0.117	0.149	0.123

Sequence	uncleaved DNA left (log2) [1]	uncleaved DNA left (log2) [2]	uncleaved DNA left (log2) [3]	uncleaved DNA left (log2) [4]	uncleaved DNA left (log2) [5]	uncleaved DNA left (log2) [6]	uncleaved DNA left (log2) [7]	uncleaved DNA left (log2) [8]	uncleaved DNA left (log2) [9]
TCGCCCA	-0.115	0.00234	0.192	-0.648	0.11	-0.342	-0.0881	0.0711	0.111
GGGACGT	0.054	0.0662	0.908	2.08	-0.0264	2.29	0.222	-0.157	0.12
CTGCTGT	-0.0172	-0.0811	-0.0901	0.0893	-0.265	0.00926	0.0611	-0.129	-0.0882
GATTAAA	-0.254	-0.0154	0.228	0.613	-0.0504	0.931	-0.0992	0.0636	0.046
AGATCCT	-0.0671	0.145	0.83	1.38	0.0912	2.16	-0.194	0.0397	0.174
TCCCATA	-0.0115	-0.0954	-0.0799	-0.645	-0.0201	-0.478	-0.18	-0.0368	0.0756
GAACTCA	-0.0296	0.0223	0.225	-0.56	-0.0509	0.753	0.00829	-0.0108	-0.00334
TAACACG	0.0326	0.0237	-0.993	-1.31	-0.0443	-1.39	0.0604	-0.0229	-0.119
GTTCAAT	0.00435	0.0156	0.235	0.932	-0.015	1.69	-0.054	-0.0342	0.033
AGCCAAC	-0.0558	0.00308	-0.115	-0.439	-0.0778	-0.00753	-0.0529	-0.0136	-0.0121
CCAAAAT	-0.0369	0.0445	-0.0662	-0.619	-0.0481	-0.574	-0.0296	-0.0536	0.0772
AGGCTAT	-0.115	0.0178	0.25	0.817	-0.11	1.24	-0.0155	-0.111	0.0573
CACACCT	-0.124	-0.274	-1.14	-2.79	-0.0744	-0.871	-0.981	-0.216	-0.142
GGACGAT	-0.00398	-0.0348	0.757	1.74	-0.00646	2.2	0.0458	-0.173	0.00186
CAGCGGT	-0.129	-0.231	-0.143	0.232	-0.123	0.0722	-0.493	-0.228	-0.243
ACTCAGT	0.0955	0.0586	-0.309	-0.565	0.0127	-1.04	-0.802	0.0679	-0.0109
CGGAGCC	-0.048	-0.0527	0.304	0.63	0.00405	0.372	-0.0643	0.0422	-0.0426
CTGGCGG	0.00329	-0.00335	0.601	1.33	-0.0125	1.61	0.104	-0.0176	0.0937
TCTATTA	-0.0532	-0.0306	0.0709	-1.14	-0.0212	-0.48	-0.101	-0.00097	0.0727
CCCTTTC	0.0612	-0.0592	0.309	0.0409	0.078	-0.358	-0.0319	0.0499	0.0611
